Results on 14 molecules are retold here after publication PMC12136788.

The list shows a part of the results.

Sequences and labels used below:
T1: UNK ZnF1-3 (human, UniProt Q9C0B0 31-174)
T1 sequence: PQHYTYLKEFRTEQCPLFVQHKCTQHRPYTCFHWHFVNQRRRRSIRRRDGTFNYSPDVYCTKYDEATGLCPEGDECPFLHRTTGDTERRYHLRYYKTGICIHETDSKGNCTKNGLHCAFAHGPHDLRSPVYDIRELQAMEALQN

B1: chr1:46159212:46159213:+_ENSG00000159596_ENST00000372025|hu_mus|hu_hu_hu_mus_True|1_1 (ssRNA)
RNA: GGGAGUUCUACAGUCCGACGAUCUCUGAUCCCUCCCAAGAAAGCUAGGAAACCGGCUCCAUAAGCCAUCUGAGUGAAAGCUAGGACGGGGAUAUAAGACUUUGUUAUUACCAUGAGAAGUGGGGGAGCAGUAAAGGGGAUUAGCAACAGAGGAUUGAGCAUCA
B2: 113130990_113140974_2106_CDS_ENSG00000149294_ENST00000316851|human|control|control (ssRNA)
RNA: GGGAGUUCUACAGUCCGACGAUCGAAGAUGACGAUGAGGAUGCCCACGAUGGCCCCGGUGCUCAGGCCUGAGGUGGGGCUGCCGUUGGCUGGGAUGGCUGUGGGCUGGGCCGAGGUCCUGAACACAAAAUGAGCCGCCUUGGACAACAGAGGAUUGAGCAUCA
B3: 78798891_78799011_3486_CDS_ENSMUSG00000033088_ENSMUST00000109689|mouse|control|control (ssRNA)
RNA: GGGAGUUCUACAGUCCGACGAUCCUCUUGCCCGAAGAGGCGCUCCACCUCUGCUCGGCCAGGGCUGCGGGUACGGCCCUCGUUGCUGCCCUGUGCCUGGGGCUCUGGCCCCCUCUGAGCCAGCCUCCUGGGUGGGGGCAGGUCCAACAGAGGAUUGAGCAUCA
B4: 88187188_88193511_567_CDS_ENSMUSG00000036902_ENSMUST00000109686|mouse|control|control (ssRNA)
RNA: GGGAGUUCUACAGUCCGACGAUCGAGCUCAAACUGGCAAUCUCCAAGGUAAGUAAAGUCUGGAUCUGGGAUGAAUGAGUAUUUUGCUCGAAAUCCUAGUCCUUCAAGUUCUUCAUCAGAACUAAAUUUAAUCCACAUGAAUCUCAACAGAGGAUUGAGCAUCA
B5: 28111919_28113614_405_CDS_ENSMUSG00000024219_ENSMUST00000088027|mouse|control|control (ssRNA)
RNA: GGGAGUUCUACAGUCCGACGAUCUACUAUCUGGGCGUCUCCUUUCCACGCUGCCAAGUGCAGCGGGUAGCAGCCUUUCGAGUCAGCAACGUUGGUCAGCGCGUCGUUCCUCAGAAGGACCUCGACCACAUCCCUGUGUCCAUUCAACAGAGGAUUGAGCAUCA
B6: chr7:141441981:141441982:+_ENSG00000106028_ENST00000265304|hu_mus|FALSE|FALSE (ssRNA)
RNA: GGGAGUUCUACAGUCCGACGAUCCUCAUGUCUUACAAACUGACGAAAUACCUGUAACACAGGUCUUCGAAACAUGGCUUCUGUUUUUCUUACAACCUAAUCUUUAGGCUUUUCCUAAAGGAAAGAAAGAAAAGAGAAAAAUGACAACAGAGGAUUGAGCAUCA
B7: 111715549_111715669_7498_ncRNA_ENSMUSG00000033209_ENSMUST00000156290|mouse|control|control (ssRNA)
RNA: GGGAGUUCUACAGUCCGACGAUCGGAGGGAUGGUAUCAGUGGCUAUGUGGGUGGGUGACCACGCUGCAUCAGGGGCCCCGGGACUCUGGCUGGAGUGUGCACUGAGUUGGGGGCAAGAAGCUGCUUUAACAUUUGGAGGAAGGCAACAGAGGAUUGAGCAUCA
B8: chr12:42180722:42180723:-_ENSMUSG00000036295_ENSMUST00000043884|mus_hu|mus_mus_mus_hu_True|38_108 (ssRNA)
RNA: GGGAGUUCUACAGUCCGACGAUCCUGUAGGAGCAGAAUCUGUGUGUUAGCUGGCAAUCUGGCUGGGAAAGUUAAAAGACCUAAAUCAUUACAAUCCACUGUCGAUGCUUCCAUAUAAAUGGAUCUGGGUGUAAACCAAGGCCUCAACAGAGGAUUGAGCAUCA
B9: chr14:103803487:103803488:+_ENSG00000100664_ENST00000558506|hu_mus|hu_hu_hu_mus_True|78_78 (ssRNA)
RNA: GGGAGUUCUACAGUCCGACGAUCGAGUUUAUGAUGUGUGUCAAGCAUGCCUCGGUAGCCACAGGCUUUACAAGAAUUACCUAUUGUUUGCUUCUUUGGAUUGACAUGCAGAUCUGUUUCAGGAUUCUCACACUCAGGACAGAGCAACAGAGGAUUGAGCAUCA
B10: 53458436_53458556_859_CDS_ENSG00000177613_ENST00000331173|human|control|control (ssRNA)
RNA: GGGAGUUCUACAGUCCGACGAUCUCCAAGUUGGGGCUGCAUUGCUCCUCCAGGAGUUAAGGAACCAGGACCAGCUCCGGGAACUGCAGCUGGUAUUGGCCCUGGAGCUGGAAUUCCACCCUGGAUAGGAGUCUGCAUCAGAGGCAACAGAGGAUUGAGCAUCA
B11: chr1:114340281:114340282:-_ENSG00000081019_ENST00000261441|hu_mus|motif|central (ssRNA)
RNA: GGGAGUUCUACAGUCCGACGAUCGUAUGCAUGAAGGACAAGAGCACCCCCAUUGGACUGGUGUUCUUCGUGAAUAAAGUUGCGGAAUUUAGUACCUGUUUUUAAGAAAUUUCUGCGAAUAGAAUGUUCUUGGUGCGUUGUAAACAACAGAGGAUUGAGCAUCA
B12: chr10:1042047:1042048:+_ENSG00000107937_ENST00000545048|hu_mus|FALSE|FALSE (ssRNA)
RNA: GGGAGUUCUACAGUCCGACGAUCGUACAGAGAAUCACCAUAUUUCAUAAGACGCACAUAAUCUUUAGCAACAUUGUCCACCAAGUUUUUGGCAAUAUUUAUUUGACCUAGAGCCAACUUGUAGUGAUCCUUGUCAUAGAGAAUCAACAGAGGAUUGAGCAUCA
B13: chr14:76904430:76904431:+_ENSMUSG00000022010_ENSMUST00000022587|mus_mus|mus_mus_mus_hu_True|78_108 (ssRNA)
RNA: GGGAGUUCUACAGUCCGACGAUCUGCUGGAAAAAAAACCCUCGUGGAAAAAAAGAGCAAGCUCCAGCAGCCUUGUAUAAGCUAGAUAAAAUCUUCUGGCUUUCCGCAGCCCAGGGAGAAACAGAAAACGGCAGCCCUAAUUUACAACAGAGGAUUGAGCAUCA
B14: chr12:45699863:45699864:+_ENSMUSG00000020598_ENSMUST00000020939|mus_hu|FALSE|FALSE (ssRNA)
RNA: GGGAGUUCUACAGUCCGACGAUCUGGAGCAUUUUUCAUGCAUCAUAUUGAACUGUAUCCUGCAGAGGAAAUAACAGGAUCUGUUGGUGAUGUUGCAUUAUUUUUUAUCAGUUCUGAGGAAAUCAAGAAUACCCAUUUUGAAUGCAACAGAGGAUUGAGCAUCA

In the assay the target is T1, UNK ZnF1-3. As to the kind of experiment: nsRBNS (natural sequence RNA bind-n-seq); RBNS binding buffer (assumed for nsRBNS): 25 mM Tris pH 7.5, 150 mM KCl, 3 mM MgCl2, 0.01% Triton X-100, 500 ug/ml BSA, 20 U/ml SUPERase-In, 4 C; UNK is unkempt and MSI1 is Musashi-1; names of the RNAs are library labels; protein concentration not given here; high values mean tight binding.
As to B1, the binding signal was 0.957 enrichment R.
The result for B2 reads 1.35 enrichment R; that for B3, 0.399 enrichment R; that for B4, 0.867 enrichment R.
The value for B5 was 0.515 enrichment R.
The result for B6 reads 0.637 enrichment R; that for B7, 1.67 enrichment R; that for B8, 1.19 enrichment R.
For B9, the binding signal turned out to be 1.13 enrichment R.
The value for B10 was 0.671 enrichment R; that for B11 was 1.02 enrichment R.
B12 came in with a binding signal of 0.667 enrichment R.
The value for B13 was 2.03 enrichment R; that for B14 was 0.944 enrichment R.
